According to the supplement of paper PMC11417369:
± gives the standard deviation of the averaged measurements. This is one part of the list.

tested on: PfAP2-LT AP2 domain (GST-tagged); assay: gcPBM binding intensity (ln(normalized median fluorescence intensity)); higher = stronger DNA binding
Procedure, shortened: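 Alexa488 anti-GST antibody, scanned at 488 nm, detected GST-tagged P. falciparum DNA-binding domains that had been expressed in E. coli and incubated for 1 h on an Agilent 4 × 180k array. The array carried primer-extended double-stranded 36-bp intergenic genomic probes and negative controls. Binding intensity is the highest Masliner-normalised natural-log median intensity across replicate spots of either orientation of each probe.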

Sequence | gcPBM binding intensity (ln)
ATATATACTATAATAGTGCATTAAAAAAGTAAAAAT | 8.92 ± 0.51
TTTCTTCGAAATAGAACACTTGTGCAAAATAAGCAA [XGTACX_negctrl_site361] | 8.54 ± 0.42
TGAACAAAAAAAAATTGTACTTTTTTTTTAATATTT [XGTACX_site7172] | 8.2 ± 0.45
AAAAAAAACAATCTCATACACACTAGGGATTAATTA [CACACA_site1776] | 8.74 ± 0.37
ATTTTTTTATAAAATTTTTATATAATTTATTATAAA [GTGCAC_negctrl_site96] | 8.12 ± 0.49
AGACAATAATATAATCGTACAATAAATAAAATAAAA [XGTACX_site5231] | 9.02 ± 0.55
AAATATAATATACAAAGTACTTTTTCATCTTATATA [XGTACX_site8771] | 8.55 ± 0.38
AAAATAATCTTTTGATTGCACTGTTACATTTTTTCT [GTGCAC_site9563] | 8.83 ± 0.49
CTTATGTGCATACCTACACACTTACATATATATATA [CACACA_site8973] | 9.02 ± 0.31
TTAAATGTTGGTTGTAGTACTCCATATGTTGTTTTA [XGTACX_site5312] | 8.91 ± 0.47
TTTGGAATATTAATTGTGCACTTAAAAAGTTAATTA | 8.38 ± 0.39
TATATATATATAAGATGTACCCTTTGAAATAATAAT [XGTACX_site7215] | 8.72 ± 0.41
TGATACTGCAAAAAATATAAAAAAATAATAAAATAA [CACACA_negctrl_site791] | 8.49 ± 0.53
AACAAAAGTAATTAAAAACAATACAAACATATGTTT [XGTACX_negctrl_site220] | 8.65 ± 0.49
TGGATAAAATAAAAATGTACTTAACATTTATATTTT [XGTACX_site712] | 8.31 ± 0.52
TTTCTAATTTATATCACACACATATAAATATAGTAA [CACACA_site6210] | 8.72 ± 0.39
AAATAATATAAACATACACACACACCGATATATATA [CACACA_site8945] | 9.92 ± 0.17
ATGTATGAAAAAATGTGTACATAATTTTTTTTTTTT [XGTACX_site5444] | 8.77 ± 0.35
ATCATTCAAAAATGCTGTACTAGGGGAAAACGTGTT [XGTACX_site7168] | 8.81 ± 0.5
ATATATAGGTTCCCTTTTCTTTTTTTTTTTTTTTTT [CACACA_negctrl_site1159] | 8.45 ± 0.46
ATATATATATATATATGTACATATTTTATAACTGTA [XGTACX_site5395] | 9.72 ± 0.35
ATTTATACATATAAACGTACATACATATATAATATT [XGTACX_site2969] | 8.75 ± 0.4
AACATAAAACGTAATATATTACAAATATAAACAATC [CACACA_negctrl_site1675] | 9.16 ± 0.48

Sequence | gcPBM binding intensity (ln)
TTACCATTTGAAAATTCACACACTTTATTTTGTTAT [CACACA_site3799] | 9.04 ± 0.52
GTAAGCATAAATATATGTACATACATATACAGATAT [XGTACX_site3361] | 9.11 ± 0.42
ATATATATATATATATGTACATAATATATGTCCTAT [XGTACX_site5087] | 9.635 ± 0.0071
TAAGATAAAAAAAATGCATGTTCTTATAATATTGTC [TGCATGCA_site939] | 8.61 ± 0.36
ATTATATCATCTAAAACATGCACACATATGTACTCT [TGCATGCA_site949] | 9.43 ± 0.38
GTTGAGAAAATATGTGCATGTCAGGTTAAATTTTTA [TGCATGCA_site744] | 8.71 ± 0.52
GGTGATATAATATATACATGCACATATATATTATTA [TGCATGCA_site970] | 8.82 ± 0.37
TATGGAAATATATATTGTACGTATGACCTTTAAAAA [XGTACX_site3935] | 8.64 ± 0.43
TTTATATGTATGAAGTGTACACATATATTGTATTTT [XGTACX_site5731] | 8.93 ± 0.45
TTACAAAAAAATAATTGTACATACAATTTCTGTTAT [XGTACX_site877] | 8.71 ± 0.45
ATTAGTTTACACATATGTACATATATTACAACAAAA [XGTACX_site275] | 8.65 ± 0.32
TTTATAATAAAATTTTTACACACTTTAAAAAAAAAA [CACACA_site8070] | 8.18 ± 0.46
AATATTCGTAATTGATGTACTTGTAATTCATACATT [XGTACX_site8314] | 8.95 ± 0.5
TTTTTTTCAATATTTGCACACGATTATAATATTTAA [CACACA_site2237] | 8.89 ± 0.45
CAGAATAATTTTATCGGTACACACTGTATGCATAAT [XGTACX_site736] | 9.02 ± 0.34
TATAATAAAAATAATACACACATATATAGCAATCGT [CACACA_site3241] | 9.24 ± 0.33
AATAAATATCTGTACACACACAAATAAATACATATC [CACACA_site5108] | 9.63 ± 0.33
TTTATGTATTTTTATGCACACATGCGTGGCTTATAT [CACACA_site4374] | 9.26 ± 0.31
TACGGACATACTAACGGACACACGTAAGAAAAAAAA [CACACA_site602] | 9.03 ± 0.56
TTTTATTAAAACCACGCATGCAGAGGAAACGGTGAG [TGCATGCA_site1029] | 8.98 ± 0.37
ATATATAATTTTTGCTGTACACAAAATATTAATTTA [XGTACX_site2057] | 8.54 ± 0.35
AATAAAAATAATGAATGTACATATATATATACAATA [XGTACX_site3342] | 8.91 ± 0.47
